The full ranking holds about 110,000 compounds; the median of “z-score” is about -0.1, and the highest 2% start at about 2. The list shows a part of the results. Activity calls are given as the source filed them.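 The calls were made as follows: active = z-score in the third read window above 3 or below -3; inactive = the rest.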

The target in the assay is Metabotropic glutamate receptor 8 (Rattus norvegicus) (UniProt P70579). Put plainly: rat mGluR8 modulators via GIRK flux, primary screen, cell-based, thallium flux, HTS (AID 488969). To be noted: HEK293 rat mGluR8, GIRK (G protein-gated inwardly rectifying potassium channel) thallium flux, FluoZin2; at 10 µM; stronger effect = higher value; submaximal glutamate (EC20) added with thallium.
Sequence of UniProt P70579 (P70579 whole entry, looked up): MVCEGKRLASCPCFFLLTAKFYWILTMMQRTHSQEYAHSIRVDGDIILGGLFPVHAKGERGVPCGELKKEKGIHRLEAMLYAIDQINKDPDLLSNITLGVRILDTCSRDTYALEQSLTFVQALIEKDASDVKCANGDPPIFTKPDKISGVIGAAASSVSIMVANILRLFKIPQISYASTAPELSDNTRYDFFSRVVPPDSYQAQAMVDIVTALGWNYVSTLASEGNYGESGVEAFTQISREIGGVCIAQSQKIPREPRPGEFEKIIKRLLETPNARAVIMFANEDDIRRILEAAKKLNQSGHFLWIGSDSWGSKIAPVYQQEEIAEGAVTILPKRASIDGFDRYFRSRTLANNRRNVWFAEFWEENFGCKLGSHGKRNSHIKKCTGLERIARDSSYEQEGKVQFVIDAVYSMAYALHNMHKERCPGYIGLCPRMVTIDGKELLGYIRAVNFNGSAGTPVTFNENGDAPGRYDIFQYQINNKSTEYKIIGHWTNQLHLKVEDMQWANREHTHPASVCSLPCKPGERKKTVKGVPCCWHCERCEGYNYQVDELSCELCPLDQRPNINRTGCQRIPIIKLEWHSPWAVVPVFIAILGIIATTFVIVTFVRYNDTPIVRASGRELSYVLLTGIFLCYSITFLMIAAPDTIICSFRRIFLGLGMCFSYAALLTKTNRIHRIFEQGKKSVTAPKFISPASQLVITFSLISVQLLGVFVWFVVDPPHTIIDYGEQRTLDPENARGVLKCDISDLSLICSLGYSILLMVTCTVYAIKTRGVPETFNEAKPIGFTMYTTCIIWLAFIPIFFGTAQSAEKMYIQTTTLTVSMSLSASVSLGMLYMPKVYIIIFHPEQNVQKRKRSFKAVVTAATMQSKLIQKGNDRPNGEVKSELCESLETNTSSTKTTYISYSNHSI
With `O=C(/C=C/c1cccs1)Nc1cccc(NC(=O)/C=C/c2cccs2)n1`, the z-score was -0.703.

Molecule `CCOC(=O)NC(Nc1ccc(OC)cc1)(C(F)(F)F)C(F)(F)F` displayed a z-score of 0.384.

Regarding `Cc1ccc(N=C(c2cccs2)N2CCOCC2)cc1`, the z-score is -0.444.

`COC(=O)c1ccccc1NC(=O)Nc1cnccn1` yielded a z-score of 1.85.

`CCc1sc2nc(SCC(=O)Nc3cc(C)on3)n(-c3cccc(OC)c3)c(=O)c2c1C` had a z-score of -0.252.

`CC(OC(=O)CN(C)S(=O)(=O)c1ccc(Cl)cc1)C(=O)Nc1ncc(Cl)cc1Cl` (stereo not drawn) came in with a z-score of -0.285.

`CCc1c(C(=O)Nc2ccc(OC)cc2)[nH]c(C)c1C(C)=O` yielded a z-score of -0.234.

`O=[N+]([O-])c1cc(Cl)ccc1N1CCN(c2cccc(C(F)(F)F)c2)CC1` came in with a z-score of -0.145.

Consider `CCC(C(=O)NC1CCCC1)N(C(=O)c1snc(C(N)=O)c1N)c1ccc2c(c1)OCCO2` (stereo not drawn), for which the z-score is 0.572.

Molecule `Cn1c(SCC(=O)N2CCN(c3ccccc3)CC2)nnc1-c1cc2ccccc2o1` displayed a z-score of -0.0754.

With `CC(C)C(=O)NC(Nc1cccc2cccnc12)C(Cl)(Cl)Cl` (stereo not drawn), the z-score is -0.141.

`CCOC(=O)c1ccc(OCc2nc(-c3cccs3)no2)cc1` gave a z-score of 0.286.

The molecule `Cc1cc(C)cc(SCc2noc(C(=O)NCC3CCCO3)c2C(=O)O)c1` (stereo not drawn) had a z-score of -0.238.

In turn, `CC1CN(c2c3c(nc4ncnn24)CCCC3)CC(C)O1` (stereo not drawn) gave a z-score of -0.374.

On to `Cc1ccc(Sc2ncnc3onc(C)c23)cc1`, for which the z-score was -0.0889.

The molecule `Cc1cccc(CCNC(=O)CN(C)S(=O)(=O)c2ccc3c(c2)c(=O)n(C)c(=O)n3C)c1` showed a z-score of 0.513.

`CCC(C)(C(=O)NC1CCCCC1)N(C(=O)c1cnccn1)c1c(C)n(C)n(-c2ccccc2)c1=O` (stereo not drawn) showed a z-score of -1.37.

`COc1cc(NC(=O)N2CCOCC2)cc(OC)c1` registered a z-score of 0.0122.

`COc1ccc(C(=O)Nc2ccc3c(c2)C(=O)c2ccccc2C3=O)cc1OC` registered a z-score of -0.209.

`CCOC(=O)/C=C/C(=O)OCC(=O)Nc1ccc(OC)c(Cl)c1` showed a z-score of -0.0911.

The molecule `CCCCCCc1nc2ccccc2c(=O)n1N` displayed a z-score of -0.112.

`Cc1cc(C)nc(N(C#N)CCOc2ccc(Cl)cc2)n1` yielded a z-score of -1.19.

For the molecule `CC(C)(C)SCCNC(=O)c1ccccc1`, the z-score stood at 0.363.

Consider `CC(=O)c1cccc(NC(=O)COC(=O)c2cccc(N3C(=O)c4ccccc4C3=O)c2)c1`, for which the z-score is 0.155.

In the case of `COc1ccc(C2CC(=O)N3C(=C2C#N)SCC3(O)c2ccccc2)cc1` (stereo not drawn), the z-score was -0.459.

The molecule `CC(C)(C)NC(=O)CN1CCC(O)(c2ccccc2)CC1` returned a z-score of -0.263.

Regarding `O=C(Nc1ccc(Cc2ccncc2)cc1)C1CCC(N2C(=O)C3CC=CCC3C2=O)CC1` (stereo not drawn), the z-score is -0.702.

`O=C1CC(c2ccc(F)cc2)CC(O)=C1C1NCCc2ccccc21` (stereo not drawn) showed a z-score of 1.81.

On to `O=C(CSc1nnc(-c2ccc(O)cc2)n1Cc1ccco1)c1ccccc1`, for which the z-score is -0.622.

The molecule `O=C(CCl)N(c1ccc(Cl)cc1)c1c[nH]c2ccccc12` gave a z-score of -0.186.

As for `COc1ccccc1NC(=O)C1=C(C)Nc2nnnn2C1c1ccccn1` (stereo not drawn), the z-score was -0.207.

In turn, `CC(=O)Nc1cnc(NC(=O)c2cccc(F)c2)cc1C` showed a z-score of 0.483.

As to `O=C(NC(=S)Nc1ccc(N2CCOCC2)cc1)c1ccco1`, the z-score was active: 3.46.

`O=C(NNC(=O)c1ccc(-c2ccccc2)cc1)c1ccccc1` registered a z-score of 0.168.

`O=C(O)COc1ccc2c3c(c(=O)oc2c1)CCC3` showed a z-score of -0.0993.

`CCOC(=O)C1=NNC(C(=O)c2ccccc2)C1c1ccc(OC)cc1` (stereo not drawn) displayed a z-score of -0.587.

For the molecule `Cc1sc2ncnc(NCCCO)c2c1C`, the z-score stood at 0.0603.

Molecule `CCOc1ccc(N(CC(=O)N2CCc3ccccc32)S(=O)(=O)c2c(C)noc2C)cc1` had a z-score of -0.356.

`CC1CC(C)CN(CC(=O)Nc2ccc3c(c2)OCCO3)C1` (stereo not drawn) displayed a z-score of -0.603.

In turn, `Cc1sc(NC(=O)C2C3C=CC(C3)C2C(=O)O)c(C(N)=O)c1-c1ccc(C(C)C)cc1` (stereo not drawn) registered a z-score of -0.404.

`O=C(Nc1cccc(S(=O)(=O)NCc2ccco2)c1)c1cc(-c2ccc(F)cc2)nc2ccccc12` had a z-score of 1.28.

Molecule `Cc1nc2c(C(=O)N3CCOCC3)cnn2c(C)c1Cc1cccc(Cl)c1` displayed a z-score of 0.156.

The molecule `CC(NC(=O)/C=C/c1ccc(Br)cc1)c1ccccc1` (stereo not drawn) displayed a z-score of -0.285.

The molecule `CN1C(=O)/C(=C\c2ccccc2)Sc2ccc(C(=O)N3CCN(c4ccccn4)CC3)cc21` displayed a z-score of -0.549.

The molecule `C/C(=N/O)c1c(O)c(C)c(-c2ccccc2)n(-c2ccccc2)c1=O` came in with a z-score of -0.717.

On to `CC(=O)Nc1ccc(N=Nc2ccc(O)cc2)cc1`, for which the z-score was -0.0923.

In the case of `CCc1nnc(NC(=O)CSc2nnc(-c3ccco3)n2C)s1`, the z-score was -0.0388.

For the molecule `Cc1nc2c(C(=O)NCCC(C)C)c[nH]n2c(=O)c1Cc1ccccc1F`, the z-score is -1.03.

Take `CCN1/C(=C(\O)c2ccccc2)C(=O)c2ccccc2S1(=O)=O`: the z-score was 1.04.

For the molecule `Cc1ccc(CNC(=O)C(Cc2ccccc2)NS(=O)(=O)c2cccs2)cc1` (stereo not drawn), the z-score is -0.105.

Turning to `CS(=O)(=O)N1CCN(C(=O)c2cc(-c3cccs3)nc3ccccc23)CC1`, the z-score was determined as 0.479.

The molecule `CCOC(=O)c1ccc(CNC(=O)c2cc(C(C)(C)C)oc2C)o1` returned a z-score of -0.962.

On to `Cc1ccc(OCCNC(=O)Cn2cnc3c(=O)n(C)c(=O)n(C)c32)cc1C`, for which the z-score is -0.0629.

`CC(C)CCSc1nc2c(c(=O)[nH]c(=O)n2C)n1CCc1ccccc1` returned a z-score of 0.00527.

For the molecule `CCCS(=O)(=O)N1CCCC(C(=O)NCCN2CCC(Cc3ccccc3)CC2)C1` (stereo not drawn), the z-score is -0.184.

Regarding `CCC(C)NC(=O)C1CCCN(c2nc(C)cc(OC)n2)C1` (stereo not drawn), the z-score was -0.0784.

With `CCN1CCN(c2nc3c(c(=O)[nH]c(=O)n3C)n2CCCSc2ncccn2)CC1`, the z-score was -0.00295.

Molecule `CCOC(=O)C1=C(OCc2ccc(Cl)cc2)C2C=C(C)C=CC2N=C1` (stereo not drawn) came in with a z-score of -0.322.

With `COC(=O)c1ccc(Oc2nc(Nc3ccc(C)c(C)c3)nc(N(C)C)n2)cc1`, the z-score came to 0.132.

`Cn1c(=O)[nH]c(=O)c2c1nc(N1CCCCC1)n2CCSc1nc2ccccc2o1` returned a z-score of 0.125.

As to `COc1ccc(N=C2SC(CC(=O)Nc3ccc(F)cc3)C(=O)N2Cc2ccco2)cc1` (stereo not drawn), the z-score is -0.198.

`Cc1occc1C(=O)Nc1cccnc1`: the z-score came out at 0.0996.

In turn, `Cc1ccc(C(=O)NC(=C(Cl)Cl)S(=O)(=O)c2ccccc2)cc1` came in with a z-score of -0.676.

`C=CCNC(=O)CCCOc1ccc(C)cc1` returned a z-score of -0.456.

In the case of `COC(=O)C1=COC(C)C2CN3CCc4c([nH]c5ccccc45)C3CC12` (stereo not drawn), the z-score amounted to 1.46.

Molecule `Cc1[nH]n(-c2ccccc2)c(=O)c1/C=N\NC(=O)C1COc2ccccc2O1` (stereo not drawn) came in with a z-score of -0.0839.

Take `Cc1ccc(C(C(=O)NC(C)(C)C)N(Cc2ccco2)C(=O)CCC(=O)Nc2nccs2)cc1` (stereo not drawn): the z-score was -0.178.

On to `O=[n+]1c2c(n([O-])c3cc(F)c(F)cc31)CCCC2`, for which the z-score is -0.343.

Take `CCOC(=O)c1[nH]c2ccc(C)cc2c1N=C(C)N(C)C`: the z-score was -0.443.

`Cc1ccc(OCC(=O)N/N=C\c2cn(Cc3ccccc3)c3ccccc23)cc1C`: the z-score was -0.0858.

Turning to `Cc1ccccc1-n1c(-c2ccc(Cl)cc2)cnc1SCC(=O)NC1CCS(=O)(=O)C1` (stereo not drawn), the z-score is -0.203.

In turn, `Cc1cc(NC(=O)C2C3C=CC(C3)C2C(=O)O)no1` (stereo not drawn) came in with a z-score of -0.164.

For `Cc1cc(C(C)(C)C)oc1C(=O)N(CC(=O)NC1CCCC1)c1cccc(C(F)(F)F)c1`, the z-score is -0.42.

Consider `COC(=O)c1ccccc1NC(=O)C1CCC(=O)N1S(=O)(=O)c1ccc(C)cc1` (stereo not drawn), for which the z-score worked out at 0.251.

Consider `CC(C)(C)n1nc2c(c1NC(=O)c1ccc(Br)cc1)CS(=O)C2` (stereo not drawn), for which the z-score was -0.601.

Consider `COCCn1c(CN2CCN(c3cccc(Cl)c3)CC2)nc2c1c(=O)n(C)c(=O)n2C`, for which the z-score was determined as 0.122.

Molecule `OC(COCc1ccccc1)CN1CCN(c2ccccc2)CC1` (stereo not drawn) showed a z-score of 0.802.

The molecule `CN1CCN(C(=O)CN2C(=O)CC(C)(C)S(=O)(=O)c3ccccc32)CC1` registered a z-score of 1.16.

Consider `COc1cccc(N=C2SC(C(=O)Nc3ccccc3F)CC(=O)N2C)c1` (stereo not drawn), for which the z-score is -0.119.

`O=C1C=C(NCc2ccc(Cl)cc2)CCC1`: the z-score is -0.138.

`Cc1onc(-c2c(Cl)cccc2Cl)c1C(=O)Nn1cnnc1` registered a z-score of 1.65.

`C/C=C/Cn1c(Br)nc2c1c(=O)[nH]c(=O)n2C` came in with a z-score of -0.224.

The molecule `Cn1c(NCC(O)c2ccccc2)nc2c1c(=O)n(Cc1ccc(Cl)cc1)c(=O)n2C` (stereo not drawn) showed a z-score of -0.833.

`Cc1ccc(NC(=O)c2cc(-c3cccc(O)c3)on2)cc1C` gave a z-score of 1.73.

In turn, `COc1ccc(Cl)cc1N1C(=O)C2CCCN2C1c1sccc1C` (stereo not drawn) returned a z-score of 0.188.

The molecule `COc1ccc2c(c1)CC/C2=N\OC(=O)c1cccc(C)c1` returned a z-score of -0.125.

As for `Cc1csc(SCC(=O)NCCc2ccc(Cl)cc2Cl)n1`, the z-score was -0.278.

`CCCOc1ccc(C(C)=O)cc1CC(C(=O)OCC)C(=O)OCC` registered a z-score of -0.373.

As to `C=CCNC(=S)N1CCN(CCN=CC2=C(O)CC(c3ccco3)CC2=O)CC1` (stereo not drawn), the z-score was -0.0308.

The molecule `Cn1c(SCC(=O)Nc2ccc3nc(SCC(=O)N4CCCC4)sc3c2)nnc1-c1ccc(N)cc1` showed a z-score of -0.641.

Take `O=C(O)CNS(=O)(=O)c1ccc(-c2ccccc2)cc1`: the z-score is -0.287.

As to `COc1ccc(OC)c(S(=O)(=O)N(C)CC(=O)Nc2ccc3c(c2)OCCO3)c1`, the z-score is -0.133.

As for `c1ccc(CN2CCN(c3nc(N4CCOCC4)c4ccccc4n3)CC2)cc1`, the z-score was -0.143.

In turn, `CC(=O)Nc1ccc(N/C=C/C(=O)c2ccco2)cc1` yielded a z-score of -0.183.

As for `Cc1ccnc(NC(=O)c2cc(-n3cnnc3)ccc2Cl)c1`, the z-score turned out to be 0.0864.

As for `COc1ccccc1-n1nnnc1SCC(=O)Nc1ccccn1`, the z-score is -0.429.

For `O=C(CN(CC(=O)N1CCOCC1)S(=O)(=O)c1ccc(Br)s1)N1CCOCC1`, the z-score is -0.0951.

`NNC(=O)C1CCCn2c1nc1sc3c(c1c2=O)CCCC3` (stereo not drawn) had a z-score of -0.112.

In turn, `Cn1nc(C(F)(F)F)c(C(=O)Nc2ccc(F)cc2F)c1Sc1cccc(C(F)(F)F)c1` returned a z-score of -0.345.

`Cn1cnnc1Sc1ccc(C(=O)NCCC23CC4CC(CC(C4)C2)C3)cc1[N+](=O)[O-]` displayed a z-score of -0.0314.

For `CCOC(=O)c1sc(NC(=O)CSc2ncn(-c3ccccc3)n2)nc1C`, the z-score was -0.633.

For the molecule `COC(=O)c1c(C)[nH]c(C)c1-c1ccccc1`, the z-score was -0.352.

Regarding `NNC(=O)c1ccc(COc2ccc3c(c2)CCC3)cc1`, the z-score was -0.0335.

The molecule `COc1ccc(OC)c(-c2[nH]nc3c2C(c2ccco2)C(C#N)=C(N)O3)c1` (stereo not drawn) yielded a z-score of -1.34.

Molecule `Cc1ccc(CNC(=O)C(NS(=O)(=O)c2cccs2)C(C)C)cc1` (stereo not drawn) gave a z-score of 0.0265.

On to `CCCc1nnc(NC(=O)CN2C(=O)c3ccccc3C2=O)s1`, for which the z-score is -0.175.

As for `Cc1nc2ccc(NC(=O)NCc3ccco3)cc2s1`, the z-score was determined as 0.494.

The molecule `Cc1nc(CS(=O)(=O)c2ccc(Cl)cc2)cc(Sc2ccccc2Cl)n1` returned a z-score of -0.863.
